The list shows a part of the results.
Columns and labels:
Assay in all cases: glycan array binding signal (z-score within array); higher = stronger binding
Conditions in all cases: glycan notation: IUPAC condensed, linker removed
[1] = target: Neu5Ac(a2-6)Gal(b1-4)GlcNAc(b1-2)Man(a1-3)[Neu5Ac(a2-6)Gal(b1-4)GlcNAc(b1-2)Man(a1-6)]Man(b1-4)GlcNAc(b1-4)[Fuc(a1-6)]GlcNAc
How it was run: (§1)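 From the Consortium for Functional Glycomics database, 3228 arrays were curated, keeping only those whose protein sequence was available. Binding is given as a within-array Z-score averaged across arrays sharing a protein sequence and across linkers. Negative Z-scores can be read as non-binding.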

[2] = target: Neu5Ac(a2-6)Gal(b1-4)GlcNAc(b1-2)Man(a1-6)Man(b1-4)GlcNAc(b1-4)GlcNAc
How it was run: as §1

[3] = target: Neu5Ac(a2-6)Gal(b1-4)GlcNAc(b1-2)Man(a1-6)[Gal(b1-4)GlcNAc(b1-2)Man(a1-3)]Man(b1-4)GlcNAc(b1-4)GlcNAc
How it was run: as §1

[4] = target: Neu5Ac(a2-6)Gal(b1-4)GlcNAc(b1-2)Man(a1-6)[GlcNAc(b1-2)Man(a1-3)]Man(b1-4)GlcNAc(b1-4)GlcNAc
How it was run: as §1

[5] = target: Neu5Ac(a2-6)Gal(b1-4)GlcNAc(b1-2)Man(a1-6)[Man(a1-3)]Man(b1-4)GlcNAc(b1-4)GlcNAc
How it was run: as §1

[6] = target: Neu5Ac(a2-6)Gal(b1-4)GlcNAc(b1-2)[Neu5Ac(a2-6)Gal(b1-4)GlcNAc(b1-4)]Man(a1-3)[GlcNAc(b1-4)][Neu5Ac(a2-6)Gal(b1-4)GlcNAc(b1-2)[Neu5Ac(a2-6)Gal(b1-4)GlcNAc(b1-6)]Man(a1-6)]Man(b1-4)GlcNAc(b1-4)GlcNAc
How it was run: as §1

[7] = target: Neu5Ac(a2-6)Gal(b1-4)GlcNAc(b1-2)[Neu5Ac(a2-6)Gal(b1-4)GlcNAc(b1-4)]Man(a1-3)[GlcNAc(b1-4)][Neu5Ac(a2-6)Gal(b1-4)GlcNAc(b1-4)Man(a1-6)]Man(b1-4)GlcNAc(b1-4)GlcNAc
How it was run: as §1

[8] = target: Neu5Ac(a2-6)Gal(b1-4)GlcNAc(b1-2)[Neu5Ac(a2-6)Gal(b1-4)GlcNAc(b1-6)]Man(a1-6)[Neu5Ac(a2-6)Gal(b1-4)GlcNAc(b1-2)Man(a1-3)][GlcNAc(b1-4)]Man(b1-4)GlcNAc(b1-4)GlcNAc
How it was run: as §1

[9] = target: Neu5Ac(a2-6)Gal(b1-4)GlcNAc(b1-3)Gal(b1-3)GlcNAc
How it was run: as §1

[10] = target: Neu5Ac(a2-6)Gal(b1-4)GlcNAc(b1-3)Gal(b1-4)GlcNAc
How it was run: as §1

[11] = target: Neu5Ac(a2-6)Gal(b1-4)GlcNAc(b1-3)Gal(b1-4)GlcNAc(b1-2)Man(a1-3)[Neu5Ac(a2-6)Gal(b1-4)GlcNAc(b1-3)Gal(b1-4)GlcNAc(b1-2)Man(a1-6)]GalNAc
How it was run: as §1

[12] = target: Neu5Ac(a2-6)Gal(b1-4)GlcNAc(b1-3)Gal(b1-4)GlcNAc(b1-3)Gal(b1-4)GlcNAc
How it was run: as §1

[13] = target: Neu5Ac(a2-6)Gal(b1-4)GlcNAc(b1-3)Gal(b1-4)GlcNAc(b1-3)Gal(b1-4)GlcNAc(b1-2)Man(a1-3)[Neu5Ac(a2-6)Gal(b1-4)GlcNAc(b1-3)Gal(b1-4)GlcNAc(b1-3)Gal(b1-4)GlcNAc(b1-2)Man(a1-6)]GalNAc
How it was run: as §1

[14] = target: Neu5Ac(a2-6)Gal(b1-4)GlcNAc(b1-3)Gal(b1-4)GlcNAc(b1-3)GalNAc
How it was run: as §1

[15] = target: Neu5Ac(a2-6)Gal(b1-4)GlcNAc(b1-3)Gal(b1-4)GlcNAc(b1-3)[Neu5Ac(a2-6)Gal(b1-4)GlcNAc(b1-3)Gal(b1-4)GlcNAc(b1-6)]GalNAc
How it was run: as §1

[16] = target: Neu5Ac(a2-6)Gal(b1-4)GlcNAc(b1-3)Gal(b1-4)GlcNAc(b1-6)[Gal(b1-3)]GalNAc
How it was run: as §1

[17] = target: Neu5Ac(a2-6)Gal(b1-4)GlcNAc(b1-3)Gal(b1-4)[Fuc(a1-3)]GlcNAc(b1-3)Gal(b1-4)[Fuc(a1-3)]GlcNAc
How it was run: as §1

[18] = target: Neu5Ac(a2-6)Gal(b1-4)GlcNAc(b1-3)GalNAc
How it was run: as §1

[19] = target: Neu5Ac(a2-6)Gal(b1-4)GlcNAc(b1-3)[Neu5Ac(a2-6)Gal(b1-4)GlcNAc(b1-6)]GalNAc
How it was run: as §1

[20] = target: Neu5Ac(a2-6)Gal(b1-4)GlcNAc(b1-6)GalNAc
How it was run: as §1

[21] = target: Neu5Ac(a2-6)Gal(b1-4)GlcNAc(b1-6)[Gal(b1-3)GlcNAc(b1-3)]Gal(b1-4)Glc
How it was run: as §1

[22] = target: Neu5Ac(a2-6)Gal(b1-4)GlcNAc(b1-6)[Gal(b1-3)]GalNAc
How it was run: as §1

[23] = target: Neu5Ac(a2-6)Gal(b1-4)GlcNAc6S
How it was run: as §1

Neu5Ac(a2-6)GalNAc = target: Neu5Ac(a2-6)GalNAc
How it was run: as §1

[24] = target: Neu5Ac(a2-6)GalNAc(b1-4)GlcNAc
How it was run: as §1

[25] = target: Neu5Ac(a2-6)GalNAc(b1-4)GlcNAc6S
How it was run: as §1

[26] = target: Neu5Ac(a2-6)GlcNAc(b1-4)GlcNAc
How it was run: as §1

[27] = target: Neu5Ac(a2-6)GlcNAc(b1-4)GlcNAc(b1-4)GlcNAc
How it was run: as §1

Neu5Ac(a2-8)Neu5Ac = target: Neu5Ac(a2-8)Neu5Ac
How it was run: as §1

[28] = target: Neu5Ac(a2-8)Neu5Ac(a2-3)Gal(b1-3)GalNAc(b1-4)[Neu5Ac(a2-3)]Gal(b1-4)Glc
How it was run: as §1

[29] = target: Neu5Ac(a2-8)Neu5Ac(a2-3)Gal(b1-3)GalNAc(b1-4)[Neu5Ac(a2-8)Neu5Ac(a2-3)]Gal(b1-4)Glc
How it was run: as §1

[30] = target: Neu5Ac(a2-8)Neu5Ac(a2-3)Gal(b1-4)Glc
How it was run: as §1

[31] = target: Neu5Ac(a2-8)Neu5Ac(a2-3)Gal(b1-4)GlcNAc
How it was run: as §1

[32] = target: Neu5Ac(a2-8)Neu5Ac(a2-3)[Gal(b1-3)GalNAc(b1-4)]Gal(b1-4)Glc
How it was run: as §1

[33] = target: Neu5Ac(a2-8)Neu5Ac(a2-3)[GalNAc(b1-4)]Gal(b1-4)Glc
How it was run: as §1

[34] = target: Neu5Ac(a2-8)Neu5Ac(a2-8)Neu5Ac
How it was run: as §1

[35] = target: Neu5Ac(a2-8)Neu5Ac(a2-8)Neu5Ac(a2-3)Gal(b1-4)Glc
How it was run: as §1

[36] = target: Neu5Ac(a2-8)Neu5Ac(a2-8)Neu5Ac(a2-3)[Gal(b1-3)GalNAc(b1-4)]Gal(b1-4)Glc
How it was run: as §1

[37] = target: Neu5Ac(a2-8)Neu5Ac(a2-8)Neu5Ac(a2-3)[GalNAc(b1-4)]Gal(b1-4)Glc
How it was run: as §1

[38] = target: Neu5Ac(a2-8)Neu5Ac(a2-8)Neu5Ac(a2-8)Neu5Ac(a2-3)[GalNAc(b1-4)]Gal(b1-4)Glc
How it was run: as §1

[39] = target: Neu5Ac(a2-8)Neu5Gc(a2-3)Gal(b1-4)GlcNAc
How it was run: as §1

Neu5Ac(b1-6)GalNAc = target: Neu5Ac(b1-6)GalNAc
How it was run: as §1

[40] = target: Neu5Ac(b2-6)Gal(b1-4)GlcNAc
How it was run: as §1

Neu5Ac(b2-6)GalNAc = target: Neu5Ac(b2-6)GalNAc
How it was run: as §1

[41] = target: Neu5Ac9Ac(a2-3)Gal(b1-3)GlcNAc
How it was run: as §1

B1: ABA (Agaricus bisporus), Q00022 (protein)
chain: MTYTISIRVYQTTPKGFFRPVERTNWKYANGGTWDEVRGEYVLTMGGSGTSGSLRFVSSDTDESFVATFGVHNYKRWCDIVTNLTNEQTALVINQEYYGVPIRDQARENQLTSYNVANAKGRRFAIEYTVTEGDNLKANLIIG
Question: B1 was tested. Which “glycan array binding signal (z-score)” value [1] did it give?
Answer: -0.277

Question: And the “glycan array binding signal (z-score)” value [2]?
Answer: -0.243

Question: What about the “glycan array binding signal (z-score)” value [3] of the same binder?
Answer: -0.295

Question: And the “glycan array binding signal (z-score)” value [4]?
Answer: 1.83

Question: And the “glycan array binding signal (z-score)” value [5]?
Answer: -0.281

Question: What about the “glycan array binding signal (z-score)” value [6] of the same binder?
Answer: -0.266

Question: What about the “glycan array binding signal (z-score)” value [7] of the same binder?
Answer: -0.249

Question: And the “glycan array binding signal (z-score)” value [8]?
Answer: -0.262

Question: What about the “glycan array binding signal (z-score)” value [9] of the same binder?
Answer: -0.209

Question: And the “glycan array binding signal (z-score)” value [10]?
Answer: -0.198

Question: And the “glycan array binding signal (z-score)” value [11]?
Answer: -0.193

Question: What about the “glycan array binding signal (z-score)” value [12] of the same binder?
Answer: -0.265

Question: And the “glycan array binding signal (z-score)” value [13]?
Answer: 0.531

Question: What about the “glycan array binding signal (z-score)” value [14] of the same binder?
Answer: -0.201

Question: And the “glycan array binding signal (z-score)” value [15]?
Answer: 2.26

Question: What about the “glycan array binding signal (z-score)” value [16] of the same binder?
Answer: 0.324

Question: What about the “glycan array binding signal (z-score)” value [17] of the same binder?
Answer: -0.241

Question: And the “glycan array binding signal (z-score)” value [18]?
Answer: -0.181

Question: And the “glycan array binding signal (z-score)” value [19]?
Answer: -0.251

Question: And the “glycan array binding signal (z-score)” value [20]?
Answer: -0.068

Question: And the “glycan array binding signal (z-score)” value [21]?
Answer: -0.255

Question: And the “glycan array binding signal (z-score)” value [22]?
Answer: -0.075

Question: And the “glycan array binding signal (z-score)” value [23]?
Answer: -0.227

Question: What about the “glycan array binding signal (z-score)” value (Neu5Ac(a2-6)GalNAc) of the same binder?
Answer: -0.271

Question: And the “glycan array binding signal (z-score)” value [24]?
Answer: -0.248

Question: What about the “glycan array binding signal (z-score)” value [25] of the same binder?
Answer: -0.274

Question: What about the “glycan array binding signal (z-score)” value [26] of the same binder?
Answer: -0.229

Question: What about the “glycan array binding signal (z-score)” value [27] of the same binder?
Answer: -0.257

Question: And the “glycan array binding signal (z-score)” value (Neu5Ac(a2-8)Neu5Ac)?
Answer: -0.258

Question: And the “glycan array binding signal (z-score)” value [28]?
Answer: -0.282

Question: And the “glycan array binding signal (z-score)” value [29]?
Answer: -0.281

Question: What about the “glycan array binding signal (z-score)” value [30] of the same binder?
Answer: -0.267

Question: And the “glycan array binding signal (z-score)” value [31]?
Answer: -0.25

Question: And the “glycan array binding signal (z-score)” value [32]?
Answer: -0.223

Question: What about the “glycan array binding signal (z-score)” value [33] of the same binder?
Answer: -0.201

Question: What about the “glycan array binding signal (z-score)” value [34] of the same binder?
Answer: -0.247

Question: What about the “glycan array binding signal (z-score)” value [35] of the same binder?
Answer: -0.229

Question: And the “glycan array binding signal (z-score)” value [36]?
Answer: -0.245

Question: And the “glycan array binding signal (z-score)” value [37]?
Answer: -0.025

Question: What about the “glycan array binding signal (z-score)” value [38] of the same binder?
Answer: -0.206

Question: And the “glycan array binding signal (z-score)” value [39]?
Answer: -0.244

Question: What about the “glycan array binding signal (z-score)” value (Neu5Ac(b1-6)GalNAc) of the same binder?
Answer: -0.191

Question: And the “glycan array binding signal (z-score)” value [40]?
Answer: -0.227

Question: What about the “glycan array binding signal (z-score)” value (Neu5Ac(b2-6)GalNAc) of the same binder?
Answer: -0.29

Question: What about the “glycan array binding signal (z-score)” value [41] of the same binder?
Answer: -0.24
